Laboratory results as given in PubChem BioAssay AID588501 (NMMLSC, 2011).
The whole screen tested about 360,000 compounds, of which about 420 (0.12%) were called active. Inconclusive means that the source gave no clear call. Such entries were picked first, then a sample of the others. Rule as the data show it: active = inhibition above about 30%; inconclusive = no clear call, values can overlap the other calls; inactive = below that.

Biological target: Lethal factor (Bacillus anthracis) (UniProt P15917)
Assay: anthrax lethal factor cleavage blockers – biochemical, multiplex microsphere, MLPCN library, primary screen (AID 588501); also: plate controls were buffer without enzyme for full effect and enzyme alone for no effect
Settings: multiplex microsphere protease cleavage assay, LF; at 10 µM; stronger effect = higher value

SMILES | inhibition
CCNc1nc(NC(C)C)nc(OCCNS(=O)(=O)c2cc(C)ccc2C)n1 | inactive: -3.8%
CNC(=O)c1ccc(Nc2nc(-c3ccccc3)nc3ccccc23)cc1 | inactive: -10.5%
CC(=O)Nc1ccc(NC(=O)CSc2nnc(-c3cccnc3)o2)cc1 | inconclusive: 15.6%
O=C(c1ccco1)N1CCN(C(=O)c2nn3cccnc3c2Cl)CC1 | inactive: -1.1%
COc1ccc(/C=N/n2c(C)nc3sc(C)c(C)c3c2=O)cc1 | inconclusive: 12.3%
COc1ccc(OC)c(NC(=O)CSc2nc(=O)n(Cc3ccccn3)c3c2CCC3)c1 | inconclusive: -4.4%
COCCNCC(=O)N1CCCCCC1 | inactive: 0.4%
CNc1cc(C)c(C#N)c2nc3ccccc3n12 | active: 32.2%
COc1ccc(OC)c(S(=O)(=O)N2CCC(c3nc4ccccc4[nH]3)CC2)c1 | inconclusive: -3.6%
O=C(CC1C(=O)NCCN1C(=O)Nc1ccccc1)Nc1ccc(F)cc1 (stereo not given) | inactive: -8.4%
CCN(CC(=O)Nc1c(F)cccc1F)C(=O)CCOc1ccccc1 | inconclusive: 6.9%
COc1ccc(-c2nn(-c3ccccc3)cc2/C=C2/SC(=S)N(CCC(=O)O)C2=O)c(C)c1 | active: 37%
CCc1nc(NCc2ccco2)c2oc3ccccc3c2n1 | inactive: -1.4%
COC(=O)c1ccc(/C=N/N2CCN(Cc3ccc(Cl)cc3)CC2)cc1 | inconclusive: -29.4%
CCC(=O)N1CCc2cc(S(=O)(=O)NC(CC(C)C)C(=O)N3CCc4ccccc43)ccc21 (stereo not given) | inconclusive: -26.7%
O=C(CN1CCCc2ccccc21)N1CCc2ccccc21 | inconclusive: -26.5%
COCc1ccc(C(=O)N2CCCC(C(=O)c3ccc(SC)cc3)C2)s1 (stereo not given) | inactive: -1.6%
O=C(Cn1nnc(-c2cccs2)n1)OC1CCCCC1 | inconclusive: -15.2%
Cc1ccc(S(=O)(=O)NC(CCC(N)=O)C(=O)NCc2ccc3c(c2)OCO3)c(C)c1 (stereo not given) | inconclusive: -0.4%
Cc1cc(C(=O)Cn2nnc3ccccc3c2=O)c(C)n1Cc1cccs1 | inactive: -2.7%
C=CCNC(=S)N/N=C/c1cn(C)c2ccccc12 | inconclusive: -13.3%
CC(C)[C@H](NC(=O)c1cccc(CN(Cc2ccccc2)C(=O)/C=C/c2ccccc2)c1)C(=O)O | inactive: 0.5%
Cc1cc(NS(=O)(=O)c2ccc(NC(=O)Nc3ccccc3)cc2)no1 | inconclusive: -6.8%

SMILES | inhibition
CC(OC(=O)CCN=C1NS(=O)(=O)c2ccccc21)C(=O)N(C)c1ccccc1 (stereo not given) | inconclusive: -3.7%
Cc1nc(Sc2ccccc2)c(C#N)c(C)c1[N+](=O)[O-] | active: 29.9%
CSc1ccc(CN2CCC2(C)C(=O)Nc2cccc(Oc3ccccc3)c2)cc1 (stereo not given) | inactive: -0.8%
COC(=O)Cc1c(C)nc2nc(NCc3cccc([N+](=O)[O-])c3)[nH]n2c1=O | inactive: -1.9%
O=C(Nc1cccc(C(F)(F)F)c1)c1n[nH]c(Cn2cncn2)n1 | inconclusive: -24.7%
CCCCn1nnnc1NCc1cc(OC)c(OC)cc1OC | inactive: -0.4%
Cc1cc(C)n(-c2nc(NCCN(C)C)c3c4c(sc3n2)COC(C)(C)C4)n1 | inconclusive: 24.2%
Nc1nc2ncccc2cc1C(=O)NCCc1cccs1 | inactive: 1%
Cc1cccc(NC(=O)CSc2nccn2Cc2ccco2)c1C | inactive: 2.7%
Cc1cccn2c(=O)nc(SCC(=O)N3CCCCCC3)nc12 | inconclusive: -4.4%
O=C(COC(=O)C1CCC1)Nc1cccc(Cl)c1 | inconclusive: 0.6%
COc1ccc(C#Cc2ccc(C3=CC(=O)CC(C)(C)C3=O)cc2)cc1 | active: 29.6%
O=C(CSc1nc2[nH]c(=O)cc(O)c2s1)Nc1nncs1 | inactive: -5.5%
COC(=O)c1sc2ncccc2c1OCc1ccc(Cl)cc1 | inconclusive: -8.9%
O=C(CSc1nnc(NC2CC2)s1)NN1C(=O)NC2(CCCCC2)C1=O | inactive: 1.5%
O=C(NC(=S)N(CCO)Cc1ccccc1)c1cc(Br)ccc1Cl | inactive: -4.6%
CCc1ccc(-c2cn(-c3nc(C)cc(C)n3)c(=N)o2)cc1 | inactive: -2.4%
COc1ccccc1C(=O)NC(=O)COC(=O)CNC(=O)c1ccccc1 | inconclusive: 2.6%
O=C(/C=C/c1cccs1)Nc1nncs1 | inconclusive: -27.9%
CCN(CC)S(=O)(=O)c1cc(C(=O)OCC(=O)c2ccc3c(c2)NC(=O)CO3)ccc1Cl | inconclusive: -1.7%
COc1ccc(C(=O)C(C)[n+]2ccc(C)c3ccccc32)cc1[N+](=O)[O-] (stereo not given) | inconclusive: 0.3%
COc1cc(Cl)cc2c1Sc1ccccc1/C2=C/CCN(C)C | inconclusive: -86.8%
O=C1C=CC(=O)N1c1ccc(-c2nc3ccccc3o2)cc1 | inactive: -3.2%

SMILES | inhibition
CC(NC(=O)CCC(=O)Nc1ccccc1O)c1ccccc1 (stereo not given) | inconclusive: -1.4%
O=C(c1cc(Cl)c(=O)n(Cc2ccc(Cl)cc2)c1)N1CCOCC1 | inconclusive: -4.4%
COCCN(C(=O)CN1CCCc2ccccc21)c1c(N)n(Cc2ccccc2)c(=O)[nH]c1=O | inconclusive: -1.4%
O=C(COc1ccc(F)cc1)Nc1cc(Cl)ccc1-n1cncn1 | inconclusive: -0.9%
Cc1noc(C)c1C(=O)N1CCN(CCc2ccccc2)CC1 | inactive: -1.3%
Cc1cc(C)cc(OCC(=O)OCC(=O)N(CC(C)C)c2c(N)n(Cc3ccccc3)c(=O)[nH]c2=O)c1 | inconclusive: -5.1%
O=C(NCCc1ccccc1)c1cnc(Cl)c(Cl)c1 | active: 35.3%
O=C(COc1ccc(F)cc1Br)NCc1ccccn1 | inactive: 3.3%
COc1cccc(C#Cc2c(C=O)n(C)c3ccccc23)c1 | active: 37.1%
CCN(CC)c1ccc(/C=C/C(=O)c2ccc(Br)cc2)cc1 | active: 42.3%
COc1ccc(NC(=O)CN(C)C(=O)C2CC(=O)N(CCc3ccc(OC)c(OC)c3)C2)cc1 (stereo not given) | inconclusive: -4.2%
CCN(CC)c1ccc2cc(C(=O)c3cccs3)c(=O)oc2c1 | active: 32.6%
O=C(CCC1CCCC1)Nc1cc(C(F)(F)F)ccc1N1CCOCC1 | inactive: 1%
CSc1ccccc1OCc1cc(C(=O)N2CCN(Cc3nccn3C)CC2)no1 | inactive: -2.1%
COc1ccccc1CNC(=O)c1c(N)n(CCCN2CCOCC2)c2nc3ccccc3nc12 | inactive: 0.9%
Cc1ccc(-c2nn(-c3ccccc3)cc2C(=O)NC2CCC(O)CC2)cc1 (stereo not given) | inconclusive: 3%
CCOC(=O)c1[nH]c(Cc2[nH]c(C(=O)OCC)c(C)c2CCC(=O)OC)c(CCC(=O)OC)c1C | inconclusive: -3.9%
Clc1ncnc2c1oc1ccccc12 | inactive: 1.2%
Nc1c(S(=O)(=O)c2ccccc2)c2nc3ccccc3nc2n1/N=C/c1ccco1 | inactive: -0.2%
COc1ccc(C2=NN(C(=O)CN3CCCC3)C(c3ccc(OC)cc3)C2)cc1 (stereo not given) | active: 33.6%
C=CCN(c1ccccc1)S(=O)(=O)c1cccc(C(=O)NCc2ccncc2)c1 | inconclusive: -3.1%
CCOC(=O)C1CCCN(C(=O)/C(=C/c2ccco2)NC(=O)c2ccccc2)C1 (stereo not given) | active: 30.6%
Cc1cc(C)n2nc(C(=O)OC(C)C(=O)c3cc(C)c(C)cc3C)nc2n1 (stereo not given) | inconclusive: -53.5%

SMILES | inhibition
CN1OC[C@@H]2CN(S(=O)(=O)c3ccccc3)[C@H](c3ccc(N4CCCCC4)cc3)C[C@@H]21 | inactive: -0.6%
Cc1cc(C)nc(NC(=O)CN2C(=O)c3ccccc3C2=O)n1 | inconclusive: -26.9%
O=C(Oc1c(Cl)cc(Cl)c2cccnc12)N1CCOCC1 | inconclusive: -6.2%
COCCN1C(=O)C(=O)/C(=C(/O)c2cccc(OC)c2)C1c1ccncc1 (stereo not given) | inactive: -5.2%
COc1ccc2nc(SCC(=O)Nc3nonc3C)[nH]c2c1 | inactive: -1.6%
CNc1ncnc2c1ncn2[C@H]1CN(Cc2cccs2)C[C@@H](CO)O1 | inactive: -7.5%
CCCn1c(=O)c2sccc2n2c(CCCC(=O)NC3CCN(Cc4ccccc4)CC3)nnc12 | inactive: -2.5%
O=S(=O)(c1cccc(Br)c1)N1CCN(C(=S)NCC2CCCO2)CC1 (stereo not given) | inconclusive: -5%
CCOc1ccccc1NC(=O)C1CCCN(C(=O)NCc2ccccc2)C1 (stereo not given) | inconclusive: -15.3%
CC(C)c1ccc(N2C(=O)CC(NNC(=O)c3ccccc3Cl)C2=O)cc1 (stereo not given) | inconclusive: -19.3%
O=C(Nc1ccc(F)c(F)c1)c1ccc2c(c1)OCO2 | inactive: 0.7%
CCCCn1c(N)c(N(CCC(C)C)C(=O)CCCc2nc3ccccc3s2)c(=O)[nH]c1=O | inactive: 3.6%
CCC(C(=O)OCC(=O)NCc1ccc2c(c1)OCO2)c1ccccc1 (stereo not given) | inactive: -5%
CCOC(=O)C1CCN(CCC(=O)Nc2cc(C)ccc2C)CC1 | active: 41.5%
Cc1ccc(N2C(=O)C3C4CCC(O4)C3C2=O)c(OC(F)F)c1 (stereo not given) | inconclusive: -2.2%
CSc1ccccc1NC(=O)CN(C)C(=O)C1CC(=O)N(C(C)c2ccccc2)C1 (stereo not given) | inconclusive: 1.7%
COc1cc(-c2cc3nc(NC4CCCCC4)ccn3n2)cc(OC)c1OC | inactive: -6.5%
CCOC(=O)c1ccccc1NC(=O)COC(=O)c1ccc(C)c(S(=O)(=O)N2CCOCC2)c1 | inconclusive: -7.8%
O=C(Nc1nnc(COc2ccc(F)cc2)s1)c1ccco1 | inconclusive: -8.1%
COCCNc1ncnc2c1cnn2-c1ccc(Cl)cc1 | inconclusive: 1.9%
CCCCN(C(=O)CSCC(=O)Nc1cccc(C)c1)c1c(N)n(CCCC)c(=O)[nH]c1=O | inconclusive: -4.6%
